From PubChem BioAssay AID624417 (National Center for Advancing Translational Sciences (NCATS), 2012)
Hit rate of the full screen: of about 410,000 compounds, about 6,400 (1.6%) were called active. Inconclusive means that the source gave no clear call. Such entries were picked first, then a sample of the others. The call rests on the fitted dose curve; in most records, active means well fitted inhibition curve with a large enough effect; inconclusive means small, poorly fitted or top-dose-only effect; inactive means no such curve, though single readings can be large or run the other way. No potency is given beside an inconclusive call; the fits are too rough.

target: Glucagon-like peptide 1 receptor (Homo sapiens) (UniProt P43220); test: qHTS of GLP-1 Receptor Inverse Agonists (Inhibition Mode); settings: HEK293 GLP-1R CRE-luciferase, luminescence, 24 h, GLP-1R form is constitutively active; activity change, negative = inhibition: at 38.3 µM (top of the series) unless noted; further: nearly all actives have a fitted effect of over 55% in size
Outline: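 Stable HEK293 clone (constitutively active GLP-1R + cAMP-response luciferase); 200 cells/uL plated, 12 h pre-culture, compound 24 hr, 37 deg C/5% CO2; detection reagent 12 min RT; luminescence.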
On the % scale 0 is the no-effect control and ±100 the full control effect; potency means the concentration at half of the fitted maximal effect; tags describe the fitted curve by direction and shape.

Sequence of UniProt P43220 (P43220 whole entry, looked up): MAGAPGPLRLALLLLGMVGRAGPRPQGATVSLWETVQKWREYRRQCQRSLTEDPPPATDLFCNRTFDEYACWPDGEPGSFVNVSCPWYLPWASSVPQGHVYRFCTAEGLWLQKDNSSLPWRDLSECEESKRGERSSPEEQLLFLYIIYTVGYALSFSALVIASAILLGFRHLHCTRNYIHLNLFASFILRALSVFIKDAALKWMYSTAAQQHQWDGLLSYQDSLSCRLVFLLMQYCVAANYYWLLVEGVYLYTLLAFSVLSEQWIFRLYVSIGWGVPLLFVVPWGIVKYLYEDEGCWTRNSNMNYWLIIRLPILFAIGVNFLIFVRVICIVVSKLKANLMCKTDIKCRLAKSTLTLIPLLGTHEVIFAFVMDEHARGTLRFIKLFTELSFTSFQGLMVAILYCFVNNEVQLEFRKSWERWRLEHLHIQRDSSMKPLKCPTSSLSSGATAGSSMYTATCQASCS

Structure (SMILES)	Potency	activity change, negative = inhibition
CC(C)c1ccc(C(=O)CC2(O)C(=O)N(CCc3ccccc3)c3ccc(Cl)cc32)cc1 (stereo not drawn)	inconclusive [inhibitor, single point]	
CC(=NC(C)C)C1=C(O)C(C)OC1=O (stereo not drawn)	inactive	
Cc1cc2ccccn2c1C(=O)c1ccc([N+](=O)[O-])o1		inactive: 5.83% [at 0.307 µM]
COc1ccccc1OCCOCCOc1ccc(C)cc1Br	inconclusive [inhibitor, single point]	
COc1ccc(OC)c(CN2CCN(C(=O)c3cc4ccccc4cc3O)CC2)c1	inconclusive [inhibitor, partial curve, poor fit]	
O=C(NCCc1ccc(Cl)cc1)C1CCN(C(=O)N2CCOc3ccccc32)CC1	inconclusive [inhibitor, single point]	
Cc1cc(C(=O)CCl)c(C)n1-c1cccc([N+](=O)[O-])c1	inconclusive [inhibitor, single point]	
CC(C)(C)c1ccc(CC(=O)N2CCC2(C)C(=O)NCc2ccc(Cl)cc2)cc1 (stereo not drawn)	inconclusive [inhibitor, single point]	
O=c1cc(-c2ccc(O)cc2)oc2ccc3ccccc3c12	inconclusive [inhibitor, full curve, poor fit]	
O=C(NNc1cccc(Cl)n1)c1c(F)cccc1F	inactive	
O=S(=O)(c1ccc(F)c(F)c1)N1CCN(CCc2ccccc2)CC1	inconclusive [inhibitor, single point]	
CCN(CC)CCN(C)C(c1ccnc2ccccc12)c1nnnn1-c1ccc2c(c1)OCCO2 (stereo not drawn)	inactive	
Cc1cc(N2CCN(C)CC2)nc2ccc(NC(=O)c3ccccc3F)cc12	inconclusive [inhibitor, single point]	
CC(=O)c1cc(F)c(N2CCN(C(=O)COc3ccc(F)cc3)CC2)cc1C	inconclusive [inhibitor, partial curve]	
COc1ccc(N2c3ccccc3CN(Cc3ccccc3)[C@@H](C)[C@H]2Cc2ccc(-c3ccccc3)cc2)cc1	inactive	
CCOC(=O)N(C)c1c(CC)nc2c(OCc3ccc(OC(F)F)cc3)cccn12	inconclusive [inhibitor, single point]	
CCOC(=O)n1c(=O)n(Cc2ccccc2Cl)c2ccccc21	inconclusive [inhibitor, single point]	
CN(C)c1ccc(C(=O)N2CCC2(C)C(=O)O)cc1 (stereo not drawn)	inactive	
O=c1c2cccnc2n(Cc2ccc(Cl)cc2)c(=O)n1Cc1ccc(F)cc1	inactive	
Cc1cccc(OCCCCc2c(C)n[nH]c2C)c1C	inconclusive [inhibitor, partial curve]	
CSc1cccc(N2CC(C(=O)N3CCN(S(=O)(=O)c4ccccc4Cl)CC3)CC2=O)c1 (stereo not drawn)	inconclusive [inhibitor, partial curve, poor fit]	
O=S(=O)(NCc1ccccc1)c1ccccc1NCCc1ccccc1	inconclusive [inhibitor, partial curve, poor fit]	

Structure (SMILES)	Potency	activity change, negative = inhibition
CCOC(=O)c1sc(NC(=S)NC(=O)c2ccc(OC)cc2)nc1C	inactive	
COc1cccc(N2CCN(C(=O)c3ccc4c(Cl)c5c(nc4c3)CCCC5)CC2)c1	inactive	
CCc1ccc(NC(=O)CSC2=Nc3ccccc3C3=NC(CC(=O)NCc4cccs4)C(=O)N23)cc1 (stereo not drawn)	inactive	
CC(=O)Nc1cccc(OCc2c(F)cccc2Cl)c1	inconclusive [inhibitor, single point]	
Cc1ccc2oc(-c3ccc(NC(=O)c4cccnc4)cc3)nc2c1	inactive	
Cc1ccc(CN2CCN(Cc3nc(C(C)C)cs3)CC2CCO)cc1 (stereo not drawn)	inconclusive [inhibitor, single point]	
Cc1ccc(S(=O)(=O)N2CCC(C(=O)Nc3ccccc3N3CCCC3)CC2)cc1	inconclusive [inhibitor, partial curve, poor fit]	
Cc1cc2c(cc3c(SCc4cccc(Cl)c4)nnc(C)n32)o1	inconclusive [inhibitor, single point]	
CCC(Cn1nnc2ccccc2c1=O)NC(=O)Nc1cc(OC)cc(OC)c1 (stereo not drawn)	inactive	
CC(C)NC(=O)N(Cc1ccc(Cl)cc1)Cc1cccs1	inconclusive [inhibitor, partial curve, poor fit]	
C=CCNC(=S)NNC(=O)COc1ccc(Cl)cc1Cl	inconclusive [inhibitor, partial curve, poor fit]	
CCC(=O)N1CCc2cc(Br)cc(S(=O)(=O)N3CCC(C(=O)Nc4cccc(C)c4)CC3)c21	inconclusive [inhibitor, single point]	
CC1CN(C(=O)/C=C/c2ccc(SC(F)F)cc2)CC(C)O1 (stereo not drawn)	inconclusive [inhibitor, single point]	
CCCOc1ccc(N2C(=O)C3C4C=CC(CC4)C3C2=O)cc1 (stereo not drawn)	inconclusive [inhibitor, partial curve, poor fit]	
CCCCNC(=O)C[C@@H]1C[C@@]2(C(=O)OCC)CCCC=C2N(CCC2=CCCCC2)C1=O	inconclusive [inhibitor, partial curve, poor fit]	
CCCc1ccc(C(=O)NNc2ccc(F)cc2)cc1	inconclusive [inhibitor, full curve, poor fit]	
CCCN1C2CCCC1CC(NC(=O)c1ccc(OC)cc1)C2 (stereo not drawn)	inactive	
CCOC(=O)[C@]12CCCC=C1N(Cc1cccc3ccccc13)C(=O)[C@H](CC(=O)NCc1ccc(C)o1)C2	inconclusive [inhibitor, single point]	
Cc1nc(C(N)=O)c(N)n1CCc1ccccc1	inactive	
Oc1c(/C=C/C=C/C=Nc2ccccc2)sc(=S)n1Cc1ccccc1	inconclusive [inhibitor, partial curve, poor fit]	
CCNc1c(NCC)c(=O)c1=O	inconclusive [inhibitor, full curve, poor fit]	
